In paper PMC7819943, “Rice protein-binding microarrays: a tool to detect cis-acting elements near promoter regions in rice”:
This is one part of the list.

Molecular target: T1, OsWOX13 (Oryza sativa, UniProt Q5QMM3 1-267)
T1 sequence: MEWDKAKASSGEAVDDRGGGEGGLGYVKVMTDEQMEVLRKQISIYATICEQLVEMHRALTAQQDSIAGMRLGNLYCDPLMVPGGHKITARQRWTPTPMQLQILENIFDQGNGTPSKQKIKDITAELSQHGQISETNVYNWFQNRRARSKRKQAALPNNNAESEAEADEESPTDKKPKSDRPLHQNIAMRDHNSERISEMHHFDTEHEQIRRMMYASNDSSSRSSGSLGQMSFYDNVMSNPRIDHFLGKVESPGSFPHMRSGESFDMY
Assay: protein-binding microarray (RPBM); PBS, 2% BSA, 51.3 ng/ul salmon testes DNA, 50 uM zinc acetate, 200 nM TF, 25 C, 1 h; high values mean tight binding
Conditions: protein: recombinant; tags: N-terminal polyhistidine and DsRed monomer fusion (pET32a); label: CyDye5-dUTP incorporated in the synthesized complementary strand; 3' TTTTT single-stranded linker to array surface; dsDNA, one strand shown
Procedure, shortened: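 Transcription factors were each fused at the N-terminus to a polyhistidine tag plus DsRed and expressed in E. coli BL21-CodonPlus before Ni–NTA purification. Binding to a double-stranded custom Agilent array was carried out with 200 nM protein at 25 °C for 1 h in PBS, 2% BSA, salmon testes DNA and 50 µM zinc acetate. The binding signal is per-feature fluorescence intensity, in arbitrary units, on an Axon 4000B scanner.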

Sequence	binding signal
ATAAATTATTCACTGTTGACACTTAAGGATTTGACTTTACCGGAGTCACCTAGTGCAG	9520 fluorescence intensity (a.u.)
GTCTAATTAATCTGTCATTAGCAAATATTTATTGTAGAATCGGAGTCACCTAGTGCAG	35100 fluorescence intensity (a.u.)
CTTGAATGAACGTTTAAATGACAAGAAACAAGAATGAACACGGAGTCACCTAGTGCAG	5160 fluorescence intensity (a.u.)
TGCAGTTGTTAGGCCACCTTGATTTGATGTAGATATTAGCCGGAGTCACCTAGTGCAG	3270 fluorescence intensity (a.u.)
TTAAACTTAATATATTAACGTGTAATCTTTTACGCGTTCACGGAGTCACCTAGTGCAG	8860 fluorescence intensity (a.u.)
GTACCATAATTTATCACAGTGAAATGACTAATGATCTCACCGGAGTCACCTAGTGCAG	11400 fluorescence intensity (a.u.)
AAAATTTAAATTTTAGCTGATAAGTATAATTGTTTATGGTCGGAGTCACCTAGTGCAG	24600 fluorescence intensity (a.u.)
GATGAATTAATTAGGCTTAATAAATTAATCTCGTAGTTTACGGAGTCACCTAGTGCAG	16600 fluorescence intensity (a.u.)
CTATCGTTATTTACACGTGATTTAAATAGTTATGAATTTTCGGAGTCACCTAGTGCAG	3700 fluorescence intensity (a.u.)
CTCAAAATCATAATTGTTCCGATTAAATTAAGAACCGGTTCGGAGTCACCTAGTGCAG	15300 fluorescence intensity (a.u.)
TTTCACTCACTGACAGCATATATATTTGTAGTCATTGTTTCGGAGTCACCTAGTGCAG	5010 fluorescence intensity (a.u.)
CCAAACCAATCAAACGCATTCTATCCTAGTTGGCATAACCCGGAGTCACCTAGTGCAG	5440 fluorescence intensity (a.u.)
GTGACAGTGACACAAGTAACAGCATGATGATGGAGCACTGCGGAGTCACCTAGTGCAG	5090 fluorescence intensity (a.u.)
AGATGATGTGACTGAAAAGTTGTGTATGTATGACAGATTGCGGAGTCACCTAGTGCAG	13400 fluorescence intensity (a.u.)
AGTGATTAATGAGACAAATAGTACTTTATTGTGACAAGTACGGAGTCACCTAGTGCAG	30900 fluorescence intensity (a.u.)
TCTGGTTTTGTAATTAGGGGACGATTTTGTATCTCGATGACGGAGTCACCTAGTGCAG	3760 fluorescence intensity (a.u.)
CGACCTGATTCTGATTATAAAATTTGGGTTAGGATATGGGCGGAGTCACCTAGTGCAG	9930 fluorescence intensity (a.u.)
GATTAACATTGCCAATCTTCCTAAGCTGCCGTGTTTCGGACGGAGTCACCTAGTGCAG	7560 fluorescence intensity (a.u.)
GCATTATTAATTAAATATTTATTACTATTAAAACTTGAAACGGAGTCACCTAGTGCAG	16400 fluorescence intensity (a.u.)
CATAAATAATTGTATTCATTTGCTCGTTCTTACCTTCACACGGAGTCACCTAGTGCAG	18600 fluorescence intensity (a.u.)
AATTAAGGTGTCTAATTATATAGATAGATACATAATTCCCCGGAGTCACCTAGTGCAG	10800 fluorescence intensity (a.u.)

Sequence	binding signal
TTCTGGAATTGAATTGAAGTCTCTTCCATTTGTTCCATTGCGGAGTCACCTAGTGCAG	13100 fluorescence intensity (a.u.)
TCTTCGTCTCTTTCTAATCATACACATTTAACAGGGAAGCCGGAGTCACCTAGTGCAG	10600 fluorescence intensity (a.u.)
GGGTAAAATTTGATATAGATATGAGTTACCTATTATCCTCCGGAGTCACCTAGTGCAG	3690 fluorescence intensity (a.u.)
TTTATTTAAACTCAAATCACGTCGAGATTGTTGGAGAGGCCGGAGTCACCTAGTGCAG	5760 fluorescence intensity (a.u.)
GATTATCAAAATATTAATTAAAATAAAATCGGAGGGAGTACGGAGTCACCTAGTGCAG	3850 fluorescence intensity (a.u.)
TAGATACAATTAAAATTAATATAGTTGTGTACCACTGTATCGGAGTCACCTAGTGCAG	3560 fluorescence intensity (a.u.)
TTGATGTGCAATAATTAACGAGAGAAGAGTTTTCCCATAGCGGAGTCACCTAGTGCAG	10300 fluorescence intensity (a.u.)
GGTTAATTTCTAGGGTATGGTGATGGTAATGTTGCGGCGACGGAGTCACCTAGTGCAG	12800 fluorescence intensity (a.u.)
AAATAAATGGAAAATACTGGTGATGTGGGGTGGAGTCATCCGGAGTCACCTAGTGCAG	8520 fluorescence intensity (a.u.)
TGGGCCGTGATTGAGGCCTATATATACGTGGCCTGACAAACGGAGTCACCTAGTGCAG	16200 fluorescence intensity (a.u.)
ATGTAATTTTCTTCCACGAGACGCTCCAACTGTCCAAGCACGGAGTCACCTAGTGCAG	4800 fluorescence intensity (a.u.)
ATTAGATTGACTATAGATGAATTGAAGACAGTAGTGGGCTCGGAGTCACCTAGTGCAG	49500 fluorescence intensity (a.u.)
TAAGCCTAATTAATCCGTCATTAGCAAATGTTTGCTATAGCGGAGTCACCTAGTGCAG	9650 fluorescence intensity (a.u.)
CTATAATTAGATTAATCCGGGCCCACGGGCTTAACCTTCTCGGAGTCACCTAGTGCAG	29400 fluorescence intensity (a.u.)
ACATTTCTCCCTAATTATCCCCATTCTCCCTGTACTTGCACGGAGTCACCTAGTGCAG	7890 fluorescence intensity (a.u.)
TAGAATTAGACAACATCATGTGTTTGCATGTAAATTGTTTCGGAGTCACCTAGTGCAG	3280 fluorescence intensity (a.u.)
GTCCCATTAATCTGATAGGATATCCTGTAACATGTTACAACGGAGTCACCTAGTGCAG	5620 fluorescence intensity (a.u.)
TTAAAAGTTTGATTGAAATTGGAACGATGTGATGGAAAAGCGGAGTCACCTAGTGCAG	22400 fluorescence intensity (a.u.)
TTCACCGATTGATTGTCTCCCTGTTAAGCTGTGTTCAAGTCGGAGTCACCTAGTGCAG	42900 fluorescence intensity (a.u.)
GCCGTGTAAACTTCAATCTAATTATTCGGACGACAATGACCGGAGTCACCTAGTGCAG	12400 fluorescence intensity (a.u.)
TTGATTGAGATGTGACTGGAAAGGTGTGTCAGTGCAGGCACGGAGTCACCTAGTGCAG	56800 fluorescence intensity (a.u.)

Sequence	binding signal
CCATGGATTGGAATGTTGCGTGCACGAAACACATCCGATGCGGAGTCACCTAGTGCAG	4560 fluorescence intensity (a.u.)
TATCAAATTTTCAATTTTCACTGTAAGACATGAATTAGAGCGGAGTCACCTAGTGCAG	4910 fluorescence intensity (a.u.)
CCAAATTTCCCAATCCGTCGGCGCTCACCGCCTTCTGTGCCGGAGTCACCTAGTGCAG	6020 fluorescence intensity (a.u.)
GGAGTAGGTACTTTAATTAATTCCGTGACGAGACGACGACCGGAGTCACCTAGTGCAG	7070 fluorescence intensity (a.u.)
CCTCTAATTATAGTGCAAAATAAAACGCTGTGCCTCAATTCGGAGTCACCTAGTGCAG	17800 fluorescence intensity (a.u.)
GAAATCTATGCAAATTAGCGTGCGATTAGCGAGGCCACGTCGGAGTCACCTAGTGCAG	6150 fluorescence intensity (a.u.)
TAATTAATTAGTAATTAAGAAAGTCGTAGTATCCCGATCGCGGAGTCACCTAGTGCAG	51100 fluorescence intensity (a.u.)
CCTGCTATAAATTTAGTTCTGTTCATAGTGTCTAATGATTCGGAGTCACCTAGTGCAG	4180 fluorescence intensity (a.u.)
TGTTCTCATTCACCTATAGCTGATTTCAGATGAACTCTACCGGAGTCACCTAGTGCAG	3690 fluorescence intensity (a.u.)
ATTAATAACTGATTCAGTCACAGTCGAAATGCTTGCCTTCCGGAGTCACCTAGTGCAG	20400 fluorescence intensity (a.u.)
TAATTGACATGAACTACTTGTGTAATTGACTTTGTTTAGTCGGAGTCACCTAGTGCAG	24700 fluorescence intensity (a.u.)
AGAGAGAGGAAGCTAATTAATTAAGCTAAGCTAAGCTAGCCGGAGTCACCTAGTGCAG	3510 fluorescence intensity (a.u.)
TTACATTGTAATTACACTACGATTGTACTATAATTACATCCGGAGTCACCTAGTGCAG	8440 fluorescence intensity (a.u.)
AATAGGATTAGGCAAGGTGATTAGTGGTACATTATGTGCTCGGAGTCACCTAGTGCAG	7060 fluorescence intensity (a.u.)
AAATCAATCAATCAAAATTCAAAATATCAAATGGTGATGACGGAGTCACCTAGTGCAG	48800 fluorescence intensity (a.u.)
TTCTTCCTTTGATTTGAAAAGTAATCCAAAGGAATGTTTCCGGAGTCACCTAGTGCAG	3390 fluorescence intensity (a.u.)
GATTAATTAATTAATCTCAATGATGGTAAATACATTCCCACGGAGTCACCTAGTGCAG	63100 fluorescence intensity (a.u.)
ATTTCATCAATCTCAATTCTCAAGATTTGCTAGCTCAGTTCGGAGTCACCTAGTGCAG	8540 fluorescence intensity (a.u.)
GGTAGATTGCACTTAGTGGGGATGGCTTGTACAGGCATAGCGGAGTCACCTAGTGCAG	9640 fluorescence intensity (a.u.)
ATGGGTAATTTGTTGCAATAGAGTTGTGTGTATGGACACGCGGAGTCACCTAGTGCAG	16200 fluorescence intensity (a.u.)
ACCTGATTTCATCTCTATATAGAGATAAAGAAGTTGTGTACGGAGTCACCTAGTGCAG	6650 fluorescence intensity (a.u.)

Sequence	binding signal
CGGATAACATGACGGAGGACTGTTATCGTCGTTGGTTGCACGGAGTCACCTAGTGCAG	3560 fluorescence intensity (a.u.)
TCGAAAATAAATCAATCTCGTACGAAATATGACACATCATCGGAGTCACCTAGTGCAG	9530 fluorescence intensity (a.u.)
TATAGGTAGACGTATTGATTAATTAAAAGAGTTTTCGAAGCGGAGTCACCTAGTGCAG	4420 fluorescence intensity (a.u.)
GATGATAGGCCGTCAAAGCTAGCTAAGCTACGCGATGAATCGGAGTCACCTAGTGCAG	3510 fluorescence intensity (a.u.)
CACAAATTATTATTTTAAAGCGTGCGGTGTCCACCGGTAACGGAGTCACCTAGTGCAG	15300 fluorescence intensity (a.u.)
GCAGAATTTTCAAATTAGAGCCAATTCGATCGGCTAGGAACGGAGTCACCTAGTGCAG	3230 fluorescence intensity (a.u.)
AAGACGATAGATTTGAGAACATGTGTTGTGTTGTGTTTGACGGAGTCACCTAGTGCAG	3290 fluorescence intensity (a.u.)
TGACCTGATTACTGACTGACTAATGAGGTGATGCAGATTTCGGAGTCACCTAGTGCAG	18200 fluorescence intensity (a.u.)
TTATACTGCACTTAATTATTTTGCTATAGTCAAATTACAACGGAGTCACCTAGTGCAG	4500 fluorescence intensity (a.u.)
AACGCAACCTGATTAGTTTAAGCCACCGGAATGCTGTTCGCGGAGTCACCTAGTGCAG	6910 fluorescence intensity (a.u.)
CCATTAATTAGCCCATAAAGAATAGGCCCATTAATGAGCCCGGAGTCACCTAGTGCAG	26100 fluorescence intensity (a.u.)
GATTACCTGATTACCTGATTACCTGTGTCACTGACAACTCCGGAGTCACCTAGTGCAG	20800 fluorescence intensity (a.u.)
AATAACTGATGACTGTGAATGATTGATACGATGTAGTAGGCGGAGTCACCTAGTGCAG	65300 fluorescence intensity (a.u.)
GTTAATTACCGCCGATATTCATATCTCTGCTTACAAACGGCGGAGTCACCTAGTGCAG	21100 fluorescence intensity (a.u.)
GCCTAATTAGTCCATGATTAGCTATAAGTGCTACAATAACCGGAGTCACCTAGTGCAG	28100 fluorescence intensity (a.u.)
TTCTAATTGATGTTTGTGATAATGTTAGGAATCCGGAGGGCGGAGTCACCTAGTGCAG	50800 fluorescence intensity (a.u.)
CGCAGATTAAACTGGCATTCTTGCACAGAAACCCCTACATCGGAGTCACCTAGTGCAG	19100 fluorescence intensity (a.u.)
AAAATTAACAATAATCCTGCCCTGTCTGGCCACTTCCTGTCGGAGTCACCTAGTGCAG	10400 fluorescence intensity (a.u.)
AACAATGATAGAGCTTTATGATTTGTTAATGGTTGCTGCACGGAGTCACCTAGTGCAG	30100 fluorescence intensity (a.u.)
GGCTGACGTCTAAATAAATTTTGAGTAAATTACATTAGCGCGGAGTCACCTAGTGCAG	15600 fluorescence intensity (a.u.)
GATGCTGTCAATTTAGGAATGCTCTCTTCACTACCACGGGCGGAGTCACCTAGTGCAG	6980 fluorescence intensity (a.u.)
